“And” between values parts separate entries of the source, which are not always exact repeats. Equal entries are not always repeated. Screen size: about 72,000 compounds; about 710 (0.99%) were called active. Inconclusive results, whose numbers are uncertain, are shown with a selection of clear calls. Calls come from the whole dose curve; as a rule, active = well fitted inhibition curve with a large enough effect; inconclusive = small, poorly fitted or top-dose-only effect; inactive = no such curve, though single readings can be large or run the other way. A potency beside an inconclusive call is a rough fit, not a confirmed value. A structure can be active in one record and inactive in another.
Assay: qHTS Assay for Inhibitors of the ERK Signaling Pathway using a Homogeneous Screening Assay; note: nearly all actives have a fitted effect of over 55% in size
Details: HEK293-V1b, vasopressin-stimulated pERK AlphaScreen; activity, negative = inhibition: at 57.5 µM (top of the series) unless noted
Summary of the method: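 Overnight-seeded V1b-HEK293 cells in 1% FBS got compound, then vasopressin (25 nM final, 5 min, 37C), then lysis buffer. AlphaScreen detection of phospho-ERK; activity normalized to basal and full-stimulation controls.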
% is set by controls: 0 for no effect and ±100 for the full control effect; potency is the fitted concentration of half-maximal effect; tags give direction and shape of the fitted curve.

| SMILES | Potency | activity, negative = inhibition |
| --- | --- | --- |
| CC[C@@H]1CN2CCc3cc(OC)c(OC)cc3[C@H]2C[C@@H]1C[C@@H]1NCCc2cc(OC)c(OC)cc21 | inconclusive: 25.1 µM [inhibitor, single point] |  |
| CC(=O)OC1CC[C@@]2(C)C3CC[C@]4(C)C(=O)CCC4C3CC[C@H]2C1 (stereo partly specified) | inconclusive: 39.8 µM [inhibitor, single point] |  |
| O=C1C(Cl)=C(Cl)C(=O)C(Cl)=C1Cl | inconclusive: 10 µM [inhibitor, partial curve] |  |
| O=C1CSC2N1CCNC21CCCCC1 (stereo unspecified) | inconclusive: 25.1 µM [inhibitor, single point] |  |
| CCCCCC[C@H]1C(=O)O[C@H](C)[C@H](NC(=O)c2cccc(NC=O)c2O)C(=O)O[C@@H](C)[C@H]1OC(=O)CC(C)C | inconclusive: 5.01 µM [inhibitor, single point] |  |
| NNC(N)=S |  | inactive: -11.9% |
| COc1ccc(CN2CCN(C(=O)COc3cccc(C)c3)CC2)c(OC)c1 | inconclusive: 25.1 µM [inhibitor, partial curve, poor fit] |  |
| C[C@H]1OC[C@@H](C[N+](C)(C)C)O1 | inconclusive: 3.16 µM [inhibitor, full curve] |  |
| CN[C@@H]1C[C@H](c2ccc(Cl)c(Cl)c2)c2ccccc21 | inconclusive: 39.8 µM [inhibitor, single point] |  |
| N#C/C(=C\c1ccc(O)c(O)c1)C(N)=S | active: 15.8 µM |  |
| COC(=O)c1c(C)[nH]c(C(=O)C(Cc2ccccc2)N(C)C)c1C (stereo unspecified) | inconclusive: 12.6 µM [inhibitor, single point] |  |
| COc1cc(-c2ccc(=O)[nH]n2)ccc1OC(F)F | inconclusive: 501 nM [inhibitor, full curve, poor fit] and inconclusive: 6.31 µM [inhibitor, full curve, poor fit] |  |
| Cc1cc(OC(=O)c2ccco2)c2c3c(c(=O)oc2c1)CCC3 | inconclusive: 39.8 µM [inhibitor, single point] |  |
| COc1ccc(C2Oc3c(I)c(OC)cc(OC)c3CC2O)cc1OC (stereo unspecified) | inconclusive: 20 µM [inhibitor, partial curve] |  |
| CCC(=O)OC1CCC2C3CCc4cc(O)ccc4C3CC[C@]12C (stereo partly specified) | inconclusive: 39.8 µM [inhibitor, single point] |  |
| C[Se]C[C@@H](N)C(=O)O | inconclusive: 20 µM [inhibitor, single point] |  |
| C[C@@]12CCC3C(CCC4=CC(=O)CC[C@]43C)C1CCC2O (stereo partly specified) | active: 31.6 µM |  |
| COC(=O)Nc1cccc(OC(=O)Nc2cccc(C)c2)c1 | active: 31.6 µM |  |
| O=S1(=O)N(CCN2CC=C(c3c[nH]c4cc(F)ccc34)CC2)c2cccc3c2N1CCC3 | inconclusive: 15.8 µM [inhibitor, single point] |  |
| N#CC(C#N)=Cc1ccc([N+](=O)[O-])c(O)c1 |  | inactive: 14.9% |
| O=C(CCCN1CCC2(CC1)C(=O)N(Cc1cccc(F)c1)CN2c1ccccc1)c1ccc(F)cc1 | inconclusive: 39.8 µM [inhibitor, single point] |  |

| SMILES | Potency | activity, negative = inhibition |
| --- | --- | --- |
| O=C1CN(C(=O)CN2CCCCC2)C(c2ccccc2)c2cc(Br)ccc2N1 (stereo unspecified) | inconclusive: 39.8 µM [inhibitor, single point] |  |
| CCC(C)C(=O)OC1C[C@@]2(C)C(c3ccoc3)OC(=O)CC23OC2(C)OC34C(OC(=O)C(C)C)[C@]3(O)C(OC(=O)C5(C)OC5C)[C@]5(C)CC3(O)[C@](C)(C5CC(=O)OC)C14O2 (stereo partly specified) |  | inactive: -10% |
| O=[N+]([O-])c1ccc(O)c([N+](=O)[O-])c1 | inconclusive: 31.6 µM [inhibitor, single point] |  |
| O=C1CC(N2CCC(n3c(=O)[nH]c4ccccc43)CC2)C(=O)N1Cc1ccccc1 (stereo unspecified) | inconclusive: 12.6 µM [inhibitor, partial curve, poor fit] |  |
| Cc1ccc2c(c1)C1CN(C)CCC1N2S(=O)(=O)c1ccccc1 (stereo unspecified) |  | inactive: -1.63% |
| CN1CCN(c2ccc(N)c(N3CCN(C)CC3)c2)CC1 | inconclusive: 39.8 µM [inhibitor, single point] |  |
| CC(C)(O)[C@@H]1C2OC(=O)[C@@H]1[C@]1(O)C[C@H]3O[C@]34C(=O)O[C@H]2[C@]14C |  | inactive: 19.5% |
| O=C(CCC1CCCC1)c1c(O)c2ccccc2oc1=O | inconclusive: 20 µM [inhibitor, single point] |  |
| O=c1[nH]c(=O)n(Cc2ccccc2)c(O)c1C=Nc1ccc(CN2CCOCC2)cc1 | inconclusive: 12.6 µM [inhibitor, partial curve] |  |
| CCc1c(C(=O)OC)ncc2[nH]c3cc(OC)c(OC)cc3c12 | inconclusive: 7.94 µM [inhibitor, full curve] |  |
| CCCCCCCCCCCC[N+](C)(C)CCOc1ccccc1 | inconclusive: 39.8 µM [inhibitor, single point] |  |
| Nc1ccc(CCN2CCN(c3cccc(C(F)(F)F)c3)CC2)cc1 | inconclusive: 15.8 µM [inhibitor, partial curve] |  |
| O=c1[nH]c2ccccc2n1C1CCN(CCCC(c2ccc(F)cc2)c2ccc(F)cc2)CC1 | inconclusive: 12.6 µM [inhibitor, partial curve, poor fit] and inconclusive: 63.1 nM [inhibitor, full curve, poor fit] |  |
| CC(=O)[O][Hg][c]1ccccc1 | inconclusive: 6.31 µM [inhibitor, full curve] |  |
| Cc1cc2c(C(C)C)c(O)c(O)c(C=O)c2c(O)c1-c1c(C)cc2c(C(C)C)c(O)c(O)c(C=O)c2c1O | active: 25.1 µM |  |
| O=C(CSc1ccccc1)N1CCC2(CC1)OCCO2 | inconclusive: 20 µM [inhibitor, single point] |  |
| CCNC(=O)[C@@H]1O[C@@H](n2cnc3c(N)ncnc32)[C@H](O)[C@H]1O | inconclusive: 0.316 µM [inhibitor, full curve] |  |
| CC[n+]1c(-c2ccccc2)c2cc(N)ccc2c2ccc(N)cc21 | inconclusive: 25.1 µM [inhibitor, single point] |  |
| N[C@H](CP(=O)(O)O)C(=O)O |  | inactive: 4.12% |
| C(=C/c1ccccc1)/CN1CCN(CCOC(c2ccccc2)c2ccccc2)CC1 | inconclusive: 39.8 µM [inhibitor, single point] |  |
